Data published in PubChem BioAssay (NCI).
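Briefly, cells in 96-well plates were exposed to five compound concentrations for 48 h, and endpoints were estimated by linear interpolation. GI50 is the concentration that inhibits growth by half. TGI: concentration producing complete growth inhibition.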

System: NCI-H322M lung
Assay: NCI-60 cell line screen, 48 h

SMILES: N#CC1(CCCCl)CCCCC1
- TGI: > 100 µM

SMILES: FC(F)(F)c1cccc(CNC2CCN(CCc3ccccc3)CC2)c1
- GI50: 80.8 µM
- TGI: > 100 µM

SMILES: C=C1CC[C@@H]2[C@](C)(COC(=O)CCC(=O)OC)CCC[C@@]2(C)[C@@H]1CCC1=CC(=O)OC1
- TGI: > 100 µM

SMILES: CCOc1ccc(OP2(=O)NC(=O)C=C(C)N2)cc1 (stereo not drawn)
- TGI: > 100 µM

SMILES: COC(=O)/C=C1\C(CO[Si](C)(C)C(C)(C)C)OC(n2ccc(=O)[nH]c2=O)C1O (stereo not drawn)
- TGI: 55.1 µM

SMILES: Cc1[nH]c(=O)c2oc3cc4ccccc4cc3c2c1C(=O)O
- TGI: > 10 µM

SMILES: O=C1C(Cl)=CC2(C=C1Cl)CCN=c1c(O)c3c(c(O)c12)=NC=N3
- TGI: > 100 µM

SMILES: CCCCCCCCCCN=C(N)c1ccc(N2CCN(c3ccc(C(N)=NCCCCCCCCCC)cc3)CC2)cc1
- GI50: 3.79 µM
- TGI: 16.8 µM

SMILES: OCc1ccc(N2CCc3ccc(F)cc3C2)cc1Cl
- GI50: 2.99 µM
- TGI: 15.2 µM

SMILES: S=c1[nH]nc(Cn2c3ccc(Br)cc3c3nc4ccccc4nc32)o1
- TGI: > 100 µM

SMILES: COc1cc2c3c(n(CCCN)c(=O)c2cc1OC)-c1ccc(N)cc1C3=O
- GI50: 4.58 µM
- TGI: 62.9 µM

SMILES: CC1(c2ccc(Cl)cc2)C=C(c2ccc(Cl)cc2)C(C#N)=C(C(C#N)C#N)N1 (stereo not drawn)
- TGI: 29.7 µM

SMILES: C[C@H]1CCC/C=C/[C@@H]2C[C@H](OC(=O)CN(C)C)C[C@H]2[C@H](O)/C=C/C(=O)O1
- TGI: 4.22 µM

SMILES: CCOC(=O)c1cn(-c2ccc([N+](=O)[O-])cc2)c(=S)n2c1nc1ccccc12
- TGI: > 100 µM

SMILES: C(=NC12CC3CC(CC(C3)C1)C2)C1CCCCC1
- TGI: > 100 µM

SMILES: CCOC(=O)C#Cc1c(C(=O)OCC)nnn1[C@@H]1O[C@H](COC)[C@@H](OC)[C@H]1OC
- GI50: 24.5 µM
- TGI: 83.5 µM

SMILES: NS(=O)(=O)c1c(O)c2ccccc2oc1=O
- TGI: > 100 µM

SMILES: C/C=C1/C=CC2c3[nH]c4ccccc4c3CCN2C1 (stereo not drawn)
- TGI: > 400 µM
